The results in this text go back to PubChem BioAssay AID463173 (ICCB-Longwood Screening Facility, Harvard Medical School, 2010).

Screen size: about 52,000 compounds; about 1,700 (3.3%) were called active. Rule as the data show it: active = survival mostly below about 52% (no sharp cut-off); inactive = mostly above about 56%. The list shows a part of the results.

The assay relates to Wild type. Put plainly: growth inhibition of S. aureus wild type versus tarO mutant, primary screen, teichoic acid synthesis inhibitors, RN4220, OD600 (AID 463173). The settings on record: S. aureus RN4220 wild type/DeltatarO growth, OD600, 18 h, stronger effect = lower value, screened at 18.75 µg/mL (by protocol).
Take `COc1ccc(NC(=O)c2ncoc2-c2ccco2)cc1Cl`: the survival was inactive: 117%.

For `COc1ccc(CNC(=O)c2cc(C3CC3)nc3c2c(C)nn3-c2cccc(Cl)c2C)cc1`, the survival is inactive: 73%.

For the compound `Cc1cccc(C(=O)Nc2ccc3nc(SCC(=O)N4CCc5ccccc54)sc3c2)c1`, the survival is inactive: 111%.

Take `COc1ccc(OC)c(-c2nnc3n(CCc4ccccc4)c(=O)c4ccccc4n23)c1`: the survival was inactive: 84%.

`COc1ccc(CNC(=O)Cn2ccc3cc(S(=O)(=O)N4CCCC4)ccc32)c(OC)c1`: the survival is inactive: 75%.

For `CCn1c(=O)n(-c2ccc3c(c2)OCO3)c2nc(-c3cc(OC)ccc3OC)nc(C(N)=O)c21`, the survival is inactive: 89%.

Regarding `COc1cc(NC(=O)c2nc(-c3ccc(Cl)cc3)n3c2CCCCC3)cc(OC)c1OC`, the survival was inactive: 84%.

Take `O=C(Cc1ccccc1)Nc1sc2c(c1C(=O)Nc1ccccc1Cl)CCCC2`: the survival is inactive: 42%.

For the compound `Cc1ccccc1C(=O)Nc1cccc(C(=O)OCc2cc(=O)n3c(C)csc3n2)c1`, the survival is inactive: 76%.

`S=c1n(-c2ccccc2)cnn1CN1CCCCC1`: the survival was inactive: 96%.

`COc1ccc(CNC(=O)c2ccc(NC(=O)N3CCSc4ncccc43)cc2)c(OC)c1`: the survival is inactive: 55%.

On to `CC(=O)N1CCCn2c1nc1ccccc12`, for which the survival is inactive: 109%.

As for `Cc1cnc(C(=O)Nc2ccc(N3CCN(C(=O)OC(C)(C)C)CC3)cc2)cn1`, the survival was inactive: 107%.

On to `CCOc1ccc2oc(=O)cc(CN3CCN(C(=O)c4cccc(Cl)c4)CC3)c2c1`, for which the survival is inactive: 76%.

Consider `Cc1ccc(C)c(Nc2nn3c(=O)c4ccc(C(=O)N(C)Cc5ccccc5)cc4nc3s2)c1`, for which the survival was inactive: 152%.

`COC(=O)C1CC2(C(=O)O)CC(C(=O)O)(CC(C(=O)OC)C2=O)C1=O` (stereo not given): the survival is inactive: 93%.

Regarding `CCN(CC)C(=O)Cn1c(=O)n(CCCCCC(=O)Nc2ccccc2)c(=O)c2sccc21`, the survival is inactive: 89%.

Take `COC(=O)c1ccccc1NC(=O)Cn1c(=O)cc(-c2ccccc2)c2c(C)nn(C)c21`: the survival is inactive: 68%.

As to `CCOC(=O)c1sc2ncn(CC(=O)Nc3cc(C)cc(C)c3)c(=O)c2c1C`, the survival was inactive: 90%.

Turning to `CCc1ccc(N2CC(C(=O)O)CC2=O)cc1` (stereo not given), the survival is inactive: 90%.

On to `O=C(NCc1ccccc1F)c1cc2ccccn2n1`, for which the survival is inactive: 83%.

Regarding `COc1cccc(C(c2nnnn2CCC(C)C)N2CCN(c3cccc(C)c3C)CC2)c1OC` (stereo not given), the survival is inactive: 101%.

`CCCCCCCc1nnc(NC(=O)c2cccs2)s1`: the survival is inactive: 104%.

With `Cc1ccc(CN2CCc3nc(N4CCN(c5ccccc5F)CC4)ncc3C2)s1`, the survival was inactive: 123%.

In the case of `C=CCN1C(=O)C2(NC(=O)c3ccccc3N2)c2ccccc21` (stereo not given), the survival was inactive: 103%.
